# The whole screen tested about 39,000 compounds, of which about 220 (0.56%) showed activity. This is one part of the list.
# Tested on: Escherichia coli K-12 BW25113
# Assay: relative growth (OD600 normalised to plate interquartile mean) (fraction); higher = less growth inhibition, active = 0.2 or less
# Details: 50 µM; LB; incubation time: overnight (16-24 h)
# 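Note: static incubation at 37 °C against the wild-type strain, values averaged over two biological replicates.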
row,SMILES,relative growth
1,COc1ccc(NC(=O)Nc2ccc3c(c2)C(=O)N([C@H](C)CO)C[C@H](C)[C@H](CN(C)S(C)(=O)=O)O3)cc1,inactive: 0.993
2,C[C@H]1CN([C@@H](C)CO)C(=O)Cc2cc(NS(=O)(=O)c3ccc(F)cc3)ccc2O[C@@H]1CN(C)Cc1ccc(Oc2ccccc2)cc1,inactive: 1.01
3,CCCNC(=O)C[C@@H]1CC[C@@H]2[C@@H](COc3ccc(NC(=O)c4ccc5c(c4)OCO5)cc3C(=O)N2C)O1,inactive: 0.983
4,OC[C@@H]1CN(CCN2CCOCC2)C[C@H](n2cnc3c(NC4CC4)ncnc32)O1,inactive: 1.02
5,CNC(=O)[C@@H](c1ccccc1)N1CCc2cc(OC)c(OC)cc2[C@@H]1CCc1ccc(C(F)(F)F)cc1,inactive: 1.02
6,C[C@@H]1CN([C@@H](C)CO)C(=O)c2cc(NC(=O)Cc3ccccc3)ccc2O[C@H]1CN(C)C(=O)Nc1cccc2ccccc12,inactive: 1
7,COc1ccc(S(=O)(=O)N(C)C[C@H]2Oc3ccc(NC(=O)Cc4ccccc4)cc3CC(=O)N([C@@H](C)CO)C[C@H]2C)cc1,inactive: 1
8,C[C@@H]1CN([C@@H](C)CO)C(=O)Cc2cc(NC(=O)c3ccncc3)ccc2O[C@@H]1CN(C)Cc1ccc2c(c1)OCO2,inactive: 0.985
9,CC(C)NC(=O)N(C)C[C@H]1Oc2ccc(NS(=O)(=O)c3cn(C)cn3)cc2C(=O)N([C@@H](C)CO)C[C@H]1C,inactive: 1.02
10,C=CC[C@H](CC(=O)N(CCO)Cc1ccccc1)C(=O)NCCOC(=O)[C@@H](CC=C)CC(=O)OC(C)(C)C,inactive: 1.02
11,CCC1(c2ccccc2)NC(=O)N(C)C1=O (stereo not drawn),inactive: 0.931
12,ON/C=N\c1nonc1-c1cccnc1,inactive: 1.02
13,C[C@@H]1CCCCO[C@H](CN(C)Cc2ccc(C(=O)Nc3ccccc3N)cc2)[C@@H](C)CN([C@H](C)CO)C(=O)c2cc(NS(=O)(=O)c3cccs3)ccc2O1,inactive: 0.962
14,CN1C(=O)[C@H]2CN(C)c3ccccc3[C@H]2C1=O,inactive: 0.995
15,C[C@@H]1CCCCO[C@@H](CN(C)S(=O)(=O)c2cccs2)[C@H](C)CN([C@@H](C)CO)C(=O)c2cc(NC(=O)Nc3ccc(C(F)(F)F)cc3)ccc2O1,inactive: 1.02
16,C[C@@H]1CCCCO[C@@H](CN(C)CC2CC2)[C@H](C)CN([C@H](C)CO)C(=O)c2cc(NC(=O)Nc3ccccc3)ccc2O1,inactive: 1.01
17,COc1ccc(S(=O)(=O)N(C)C[C@H]2Oc3ccc(NC(=O)c4ccncc4)cc3C(=O)N([C@H](C)CO)C[C@H]2C)cc1,inactive: 1.03
18,CCn1c(=S)ccc2ccccc21,inactive: 0.884
19,CNC1C(O)C(NC)C2OC3(O)C(=O)CC(C)OC3OC2C1O.Cl.Cl (stereo not drawn),active: 0.048
20,C[C@@H]1CN([C@H](C)CO)C(=O)c2cc(NC(=O)c3ccccc3)ccc2O[C@@H](C)CCCCO[C@H]1CN(C)Cc1ccncc1,inactive: 1.01
21,C[C@H](CO)N1C[C@H](C)[C@@H](CN(C)S(=O)(=O)c2cn(C)cn2)Oc2ccc(NC(=O)Nc3ccc4c(c3)OCO4)cc2C1=O,inactive: 1.01

row,SMILES,relative growth
1,C[C@H]1CN([C@@H](C)CO)C(=O)CCCn2cc(nn2)CO[C@@H]1CN(C)C(=O)Nc1ccc(N2CCCCC2)cc1,inactive: 1.02
2,Cc1nc(CN)c(C)o1,inactive: 0.995
3,Cc1ccc(S(=O)(=O)N[C@H]2CC[C@H](CC(=O)NCc3ccc(Cl)c(Cl)c3)O[C@H]2CO)cc1,inactive: 0.989
4,Cc1noc(C)c1NC(=O)N(C)C[C@@H]1Oc2ccc(NC(=O)CCN3CCOCC3)cc2C(=O)N([C@H](C)CO)C[C@@H]1C,inactive: 0.983
5,COc1ccccc1CNC(=O)C[C@H]1CC[C@@H]2[C@H](COC[C@@H](O)CN2C(=O)Nc2ccc(F)cc2)O1,inactive: 1
6,c1ccc(/N=C2\S/C(=N\C3CCCCC3)C3=C2CCCC3)cc1,inactive: 1.04
7,C[C@@H]1CCCCO[C@H](CN(C)Cc2ccc(C(F)(F)F)cc2)[C@@H](C)CN([C@H](C)CO)C(=O)c2cc(NC(=O)Nc3ccc4c(c3)OCO4)ccc2O1,inactive: 0.98
8,COc1cc(C(=O)NCCCCCC(=O)O)cc(OC)c1OC,inactive: 1.12
9,C[C@@H]1CN([C@H](C)CO)C(=O)c2cc(NS(=O)(=O)c3ccc(Cl)cc3)ccc2O[C@@H](C)CCCCO[C@H]1CN(C)C(=O)Nc1ccc(C(F)(F)F)cc1,inactive: 1.03
10,COc1ccc2c3c(n(c2c1)C)[C@@H](CO)N(C[C@]13CCN(CC1)C(=O)CN(C)C)S(=O)(=O)C,inactive: 1.01
11,O=C(C[C@@H]1C[C@H]2c3cc(NS(=O)(=O)c4ccccc4)ccc3O[C@H]2[C@@H](CO)O1)NC1CCCCC1,inactive: 1.04
12,CO[C@@H]1CN(C)C(=O)c2cc(NC(=O)C3CC3)ccc2OC[C@@H](C)N(C(=O)C2CCOCC2)C[C@H]1C,inactive: 0.967
13,COC(=O)CNC(=O)c1ccccc1,inactive: 0.981
14,CCN(CC)CCc1nc(-c2ccccc2)no1.O=C(O)CC(O)(CC(=O)O)C(=O)O,inactive: 0.968
15,COc1ccc(S(=O)(=O)Nc2ccc3c(c2)C(=O)N([C@H](C)CO)C[C@H](C)[C@@H](CN(C)Cc2ccc(C(F)(F)F)cc2)OCCCC[C@@H](C)O3)cc1,inactive: 1.03
16,Cc1noc(C)c1NC(=O)Nc1ccc2c(c1)C(=O)N([C@@H](C)CO)C[C@H](C)[C@H](CN(C)C(=O)Nc1ccc(F)cc1)OCCCC[C@H](C)O2,inactive: 0.965
17,Cc1noc(C)c1NC(=O)N(C)C[C@@H]1Oc2ccc(NS(=O)(=O)c3c(C)noc3C)cc2C(=O)N([C@H](C)CO)C[C@@H]1C,inactive: 0.994
18,C[C@@H]1CN([C@H](C)CO)C(=O)c2cc(NC(=O)c3ccncc3)ccc2O[C@@H]1CN(C)Cc1ccc(-c2ccccc2)cc1,inactive: 1
19,C[C@H]1CN([C@@H](C)CO)C(=O)c2cc(NS(=O)(=O)c3ccc(F)cc3)ccc2O[C@H]1CN(C)CC1CC1,inactive: 1
20,CC(NCCc1ccc(O)cc1)C(O)c1ccc(O)cc1.Cl (stereo not drawn),inactive: 1.06
21,C[C@H]1CN([C@@H](C)CO)C(=O)c2cccc(NS(=O)(=O)c3cccs3)c2O[C@H]1CN(C)CC1CC1,inactive: 1.01

row,SMILES,relative growth
1,CN1CCN(C2=Nc3ccccc3Oc3ccc(Cl)cc32)CC1.O=C(O)CCC(=O)O,inactive: 1.08
2,C[C@H]1CN([C@@H](C)CO)S(=O)(=O)c2ccc(-c3cncnc3)cc2O[C@@H]1CN(C)C(=O)Cc1ccccc1,inactive: 1.03
3,COc1ccc(NC(=O)N(C)C[C@H]2OCCCC[C@@H](C)Oc3ccc(NS(=O)(=O)c4cccs4)cc3C(=O)N([C@H](C)CO)C[C@H]2C)cc1,inactive: 1.05
4,C[C@H]1CN([C@@H](C)CO)S(=O)(=O)c2ccc(C#CC3(O)CCCC3)cc2O[C@@H]1CN(C)C(=O)Cc1ccncc1,inactive: 1.02
5,C[C@@H]1CN([C@H](C)CO)C(=O)c2ccccc2-c2ccccc2CO[C@@H]1CN(C)C(=O)Nc1ccc(F)cc1,inactive: 0.995
6,C[C@@H](NC(=O)C[C@@H]1CC[C@@H](NC(=O)CN2CCOCC2)[C@@H](CO)O1)c1ccccc1,inactive: 0.988
7,CC(C)N1C(=O)[C@@H]2[C@@H](C1=O)[C@@H]1C=C[C@@H]2O1,inactive: 0.99
8,C[C@H]1CCCCO[C@@H](CN(C)C(=O)Nc2cccc3ccccc23)[C@@H](C)CN([C@@H](C)CO)C(=O)c2cc(NS(=O)(=O)c3ccccc3)ccc2O1,inactive: 1.03
9,CC1OC1P(=O)([O-])[O-].[Ca+2] (stereo not drawn),inactive: 1.08
10,C[C@@H]1CN([C@H](C)CO)S(=O)(=O)c2ccc(C#CC3CC3)cc2O[C@@H]1CN(C)Cc1cccc(F)c1,inactive: 1.03
11,CC(C)C[C@@H]1NC(=O)[C@@]23C(=O)N[C@@H](Cc4ccccc4)[C@H]2[C@H](C)[C@@]2(C)O[C@H]2[C@@H]3/C=C/C/C=C\CNC(=O)[C@@H](C)NC1=O,inactive: 1.01
12,COC(=O)[C@@H](C)n1nc(-c2ccccc2)c2ccccc21.COC(=O)[C@H](C)n1nc(-c2ccccc2)c2ccccc21,inactive: 1.01
13,COCCOC(=O)N1C(=O)[C@@]2(c3cc(C#Cc4ccc(OC)cc4)ccc31)[C@H](c1ccccc1OCCO)N1[C@H](c3ccccc3)[C@H](c3ccccc3)OC(=O)[C@H]1[C@@H]2C(=O)N1CCc2cc(OC)c(OC)cc2C1,inactive: 1.08
14,C[C@@H]1CCCCO[C@H](CN(C)C(=O)Cc2ccccc2)[C@@H](C)CN([C@@H](C)CO)C(=O)c2cc(NC(=O)c3ccccc3)ccc2O1,inactive: 1.01
15,C[C@H](CO)N1C[C@H](C)[C@@H](CN(C)S(=O)(=O)c2cn(C)cn2)Oc2cc(C3=CCCC3)ccc2S1(=O)=O,inactive: 1.01
16,C[C@@H]1CN([C@H](C)CO)C(=O)c2cc(NC(=O)Cc3ccccc3)ccc2O[C@@H](C)CCCCO[C@H]1CN(C)Cc1ccncc1,inactive: 1
17,C=C(C)CC1(N[C@H](C)c2ccccc2)CCCCC1,inactive: 1.01
18,C[C@@H]1CN([C@@H](C)CO)S(=O)(=O)c2ccc(C#CC(C)(C)O)cc2O[C@H]1CN(C)Cc1ccc(F)cc1,inactive: 1.01
19,C[C@H]1CN([C@@H](C)CO)C(=O)c2cc(NS(=O)(=O)c3ccc(Cl)cc3)ccc2O[C@@H]1CN(C)Cc1ccc(Cl)c(Cl)c1,inactive: 1.02
20,CC(C)CC#Cc1ccc2c(c1)O[C@@H](CN(C)S(=O)(=O)c1cccc(F)c1)[C@@H](C)CN([C@@H](C)CO)S2(=O)=O,inactive: 1.02
21,CCC(=O)NCCN1CCN(C(=O)CC)CC1,inactive: 1.05
